# Measurements: paper PMC4939794 (Biochemistry, 2015)
# Assays:
# [1] = biological target: HA peptide, 12-residue peptide from H5N1 influenza virus hemagglutinin (influenza A virus H5N1 …); assay: other fluorescence titration
# SEC = biological target: the molecule itself; assay: SEC
Binder,Kd [1] [µM],"ratio of oligomers to monomers, with HA peptide added (SEC)","ratio of oligomers to monomers, without peptide (SEC)"
LOO7-WT (leave-one-out GFP: circularly permuted OPT-GFP truncated to remove strand 7) (other) MTHHHHHHSSGKNGIKANFTVRHNVEDGSVQLADHYQQNTPIGDGPVLLPDNHYLSTQTVLSKDPN[about 20 residues skipped]GGTGGSMSKGEELFTGVVPILVELDGDVNGHKFSVRGEGEGDATIGKLTLKFICTTGKLPVPWPTLVTTLTYGVQCFSRYPDHMKRHDFFKSAMPEGYVQERTISFKDDGKYKTRAVVKFEGDTLVNRIELKGTDFKEDGNILGHKLEYNF,> 1000,–,–
LOO7-HA4 (computationally designed leave-one-out GFP with 7 mutations) (designed binder) MTHHHHHHSSGKNGIKITFTVTHNVEDGSVQLADHYQQNTPIGDGPVLLPDNHHLKTTTVLSKDPN[about 20 residues skipped]GGTGGSMSKGEELFTGVVPILVELDGDVNGHKFSVRGEGEGDATIGKLTLKFICTTGKLPVPWPTLVTTLTYGVQCFSRYPDHMKRHDWFKSAMPEGYVQERTISFKDDGKYKTRAVVKFEGDTLVNRIELKGTDFKEDGNILGHKLEYNF,–,~0.33 oligomers:monomers,~1 oligomers:monomers
